This is an account of results in publication PMC4336329 (PLoS ONE, 2015).

The structures appear in SMILES notation. The whole screen tested about 310,000 compounds, of which about 14,000 (4.5%) showed an effect of 50% or more. The effect is printed as a negative number. The list shows a part of the results.
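Further: peak tail current of the secondary pulse compared with the same well before compound.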

The assay deals with human ether-à-go-go-related gene (hERG) potassium channel (human, UniProt Q12809). Description: primary screen, population patch clamp on CHO cells stably expressing hERG.
Chain of human ether-à-go-go-related gene (hERG) potassium channel (Q12809 whole entry, looked up): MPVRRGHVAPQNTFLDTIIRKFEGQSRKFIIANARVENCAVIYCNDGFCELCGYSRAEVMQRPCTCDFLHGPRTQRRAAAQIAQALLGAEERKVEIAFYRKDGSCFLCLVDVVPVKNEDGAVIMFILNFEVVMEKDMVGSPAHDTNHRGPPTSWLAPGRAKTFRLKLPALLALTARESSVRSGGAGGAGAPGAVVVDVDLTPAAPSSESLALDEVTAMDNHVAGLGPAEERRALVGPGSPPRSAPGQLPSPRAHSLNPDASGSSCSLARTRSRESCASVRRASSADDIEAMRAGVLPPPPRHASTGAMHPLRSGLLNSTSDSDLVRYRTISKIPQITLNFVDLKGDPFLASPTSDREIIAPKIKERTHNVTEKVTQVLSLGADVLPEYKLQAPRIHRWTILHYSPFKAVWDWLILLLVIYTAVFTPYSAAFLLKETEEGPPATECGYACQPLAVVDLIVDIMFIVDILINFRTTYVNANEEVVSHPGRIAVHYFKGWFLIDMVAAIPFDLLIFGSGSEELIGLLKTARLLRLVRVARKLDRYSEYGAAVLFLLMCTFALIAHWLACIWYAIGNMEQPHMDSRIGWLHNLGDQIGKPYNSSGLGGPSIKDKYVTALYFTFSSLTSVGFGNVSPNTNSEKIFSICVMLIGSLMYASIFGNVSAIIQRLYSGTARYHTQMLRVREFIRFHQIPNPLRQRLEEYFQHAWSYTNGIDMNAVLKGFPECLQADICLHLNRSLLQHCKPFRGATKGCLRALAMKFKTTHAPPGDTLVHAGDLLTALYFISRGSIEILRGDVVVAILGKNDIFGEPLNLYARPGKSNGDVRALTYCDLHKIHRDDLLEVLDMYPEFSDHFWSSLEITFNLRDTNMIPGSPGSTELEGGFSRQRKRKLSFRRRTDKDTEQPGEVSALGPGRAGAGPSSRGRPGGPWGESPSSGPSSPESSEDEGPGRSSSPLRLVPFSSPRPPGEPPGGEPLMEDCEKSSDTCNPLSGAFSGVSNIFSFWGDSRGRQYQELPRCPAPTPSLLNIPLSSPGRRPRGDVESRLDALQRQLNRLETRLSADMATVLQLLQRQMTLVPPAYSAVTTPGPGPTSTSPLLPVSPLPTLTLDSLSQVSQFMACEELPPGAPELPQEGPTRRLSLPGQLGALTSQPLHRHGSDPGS
Turning to `COc1cccc(NC(=O)CSc2nnc(-c3cc(C)n(-c4ccccc4)c3C)o2)c1`, the “hERG current change (%, negative = inhibition) at 10uM” value is listed as 7.68%.

Consider `CC(C)n1nnnc1SCC(=O)Nc1ccc2c(c1)OCCO2`, for which the “hERG current change (%, negative = inhibition) at 10uM” value was 5.06%.

In the case of `CN(C(=O)CCOc1ccccc1)c1c(N)n(Cc2ccccc2)c(=O)[nH]c1=O`, the “hERG current change (%, negative = inhibition) at 10uM” value was -1.84%.

Consider `COC(=O)C1=C(c2cccc(OC)c2OC)C[C@@H]2CC[C@H]1N2C(=O)NCc1ccccc1`, for which the “hERG current change (%, negative = inhibition) at 10uM” value is given as -0.545%.

Consider `Cc1ccnc(NS(=O)(=O)c2ccc(NC(=O)/C=C/c3cccs3)cc2)n1`, for which the “hERG current change (%, negative = inhibition) at 10uM” value is -4.19%.

Regarding `Cn1c(=O)c2c(nc(-n3ccnc3)n2C)n(C)c1=O`, the “hERG current change (%, negative = inhibition) at 10uM” value is on record as 6.48%.

`CCOC(=O)C(C)On1c(-n2nc(C)cc2C)nc2ccccc2c1=O` (stereo not drawn): the “hERG current change (%, negative = inhibition) at 10uM” value turned out to be 9.29%.

Consider `Cc1cc(NC(=O)CSc2nnc(-c3ccc([N+](=O)[O-])cc3)o2)no1`, for which the “hERG current change (%, negative = inhibition) at 10uM” value is reported as 9.07%.

Take `CCc1noc(C)c1C(=O)OCC(=O)NC(=O)c1ccccc1OC`: the “hERG current change (%, negative = inhibition) at 10uM” value was found to be 12.5%.

Regarding `CCOc1ccc(N2CSC3=C(C#N)C(c4ccco4)CC(=O)N3C2)cc1` (stereo not drawn), the “hERG current change (%, negative = inhibition) at 10uM” value is -6.43%.

In the case of `C/C(=N/NC(=O)c1ccccc1)C(=O)O`, the “hERG current change (%, negative = inhibition) at 10uM” value was 8.3%.

On to `C=CCNC(=S)Nc1nc2c(cc1C(=O)OCC)CCCC2`, for which the “hERG current change (%, negative = inhibition) at 10uM” value is -2.03%.

In the case of `COCC1CCCN(C(=O)c2cc(COc3cncc(Cl)c3)on2)C1` (stereo not drawn), the “hERG current change (%, negative = inhibition) at 10uM” value amounted to 12.5%.

For `COc1ccccc1CNCC(O)(c1ccc(F)cc1)c1ccc(F)cc1`, the “hERG current change (%, negative = inhibition) at 10uM” value was -68%.

As to `CCc1c(C)nc2ccc(Br)cc2c1SCCC#N`, the “hERG current change (%, negative = inhibition) at 10uM” value was -32.8%.

Consider `CC(C)(C)NC(=O)CSc1nncn1NCc1ccccc1`, for which the “hERG current change (%, negative = inhibition) at 10uM” value amounted to 8.93%.

Turning to `Nc1c(C(=O)N/N=C/c2cccnc2)cnn1-c1ccccc1`, the “hERG current change (%, negative = inhibition) at 10uM” value was -9.82%.

In the case of `COc1ccc(N2CCN(C(=O)c3ccc4c(=O)n5c(nc4c3)CCCCC5)CC2)cc1`, the “hERG current change (%, negative = inhibition) at 10uM” value is given as -25.4%.

On to `CCCn1ncc(C(=O)N(C)C2CCCN(Cc3ccccc3F)C2)c1C` (stereo not drawn), for which the “hERG current change (%, negative = inhibition) at 10uM” value is reported as 6.14%.

In the case of `O=C(c1cc2cc(Br)ccc2o1)N1CCCC1`, the “hERG current change (%, negative = inhibition) at 10uM” value is recorded as -8.69%.

On to `CN(CC(=O)Nc1ccccc1Cl)C(=O)CSc1nnc(-c2ccco2)n1C`, for which the “hERG current change (%, negative = inhibition) at 10uM” value was 2.04%.

For the compound `CC(=O)c1ccc(NC(=O)c2cccs2)cc1`, the “hERG current change (%, negative = inhibition) at 10uM” value stood at 11%.

Regarding `Cc1cc(C)nc(NC(=O)CSc2nc3ccccc3s2)n1`, the “hERG current change (%, negative = inhibition) at 10uM” value is 2.88%.

Consider `CC(C)C(C(=O)N1CCN(Cc2ccccc2)CC1)c1ccccc1.Cl` (stereo not drawn), for which the “hERG current change (%, negative = inhibition) at 10uM” value is -4.29%.

With `CCc1ccc2c(c1)cc(CN(C(=S)Nc1ccc(Cl)cc1)C1CC1)c1nnnn12`, the “hERG current change (%, negative = inhibition) at 10uM” value was 0.972%.

For `COc1ccc2nc(SCc3ccccc3C)nc(C)c2c1`, the “hERG current change (%, negative = inhibition) at 10uM” value is listed as -1.69%.

`CCCOc1ccc(Cn2cnc3ccccc32)cc1`: the “hERG current change (%, negative = inhibition) at 10uM” value is recorded as -10.2%.

Consider `CC(=O)CC(C)(C)n1c[n+](C)nn1.[O-][Cl+3]([O-])([O-])[O-]`, for which the “hERG current change (%, negative = inhibition) at 10uM” value is given as -2.63%.

In the case of `CCc1ccc(NC(=O)[C@H](C)NC(=O)C2CCN(C(=O)[C@@H](NC(=O)OC(C)(C)C)C(C)C)CC2)cc1`, the “hERG current change (%, negative = inhibition) at 10uM” value is -0.397%.

`CC(=O)Nc1ccccc1OCc1nnc(-c2ccc(Cl)cc2)o1`: the “hERG current change (%, negative = inhibition) at 10uM” value is -11.4%.

With `COC(=O)c1cccc(NC(=O)CSc2nnc(C)o2)c1`, the “hERG current change (%, negative = inhibition) at 10uM” value is reported as -0.823%.

As for `COC(=O)Cc1ccc(NC(=S)N2CCC(Cc3ccccc3)CC2)cc1`, the “hERG current change (%, negative = inhibition) at 10uM” value turned out to be 5%.

On to `Cc1ccc(C(=O)NNc2cc(N3CCCC3)nc(N3CCCC3)n2)cc1`, for which the “hERG current change (%, negative = inhibition) at 10uM” value is reported as -35.4%.

As for `COc1ccc(C(=O)CSc2n[nH]c(N)n2)cc1`, the “hERG current change (%, negative = inhibition) at 10uM” value was determined as 5.79%.

Turning to `CC1CCCCC1NC(=O)CN1C(=O)CSc2cc(S(=O)(=O)N3CCCCCC3)ccc21` (stereo not drawn), the “hERG current change (%, negative = inhibition) at 10uM” value is given as -29.6%.

In the case of `CCN1C(=O)/C(=C\N2CCCCCC2)SC1=S`, the “hERG current change (%, negative = inhibition) at 10uM” value turned out to be 3.17%.

For the compound `O=C(Nc1ccc(N2CCN(Cc3ccccc3)CC2)cc1)c1ccccc1[N+](=O)[O-]`, the “hERG current change (%, negative = inhibition) at 10uM” value was found to be 8.53%.

As for `O=C(NC1=NCCS1)c1ccc(Br)s1`, the “hERG current change (%, negative = inhibition) at 10uM” value is on record as -8.38%.

Turning to `CC(C)(C)C1CCc2onc(C(=O)Nc3cccc(O)c3)c2C1` (stereo not drawn), the “hERG current change (%, negative = inhibition) at 10uM” value turned out to be 1.99%.

`Nc1cc(=O)[nH]c(SCC(=O)Nc2cccnc2Cl)n1`: the “hERG current change (%, negative = inhibition) at 10uM” value amounted to 23.3%.

On to `CCc1nnc(NC(=O)Cc2cccs2)s1`, for which the “hERG current change (%, negative = inhibition) at 10uM” value is given as 9.45%.

With `Cc1ccc(S(=O)(=O)Cc2ccc(C(=O)N3CCCC3)o2)cc1`, the “hERG current change (%, negative = inhibition) at 10uM” value is -6.89%.

As to `O=C(Nc1cc(S(=O)(=O)N2CCCCCC2)ccc1OCC(F)(F)F)C1CCC1`, the “hERG current change (%, negative = inhibition) at 10uM” value was 9.02%.

As for `COc1ccc(-n2nnc3c(=O)n(CC(=O)OCc4ccccc4)cnc32)cc1`, the “hERG current change (%, negative = inhibition) at 10uM” value is 3.03%.

`CCCn1ncc(CN2CCCC(C(=O)c3cccc(OC)c3)C2)c1C` (stereo not drawn): the “hERG current change (%, negative = inhibition) at 10uM” value is -67.8%.
